No constants are given. Whether binding was seen depends on the method and setting. In cells and extracts the contact can be indirect. Some results given as binding are weak or reduced against the parent protein; the word gives no strength. For part of these data: Tags and fused reporters may be left off the sequences shown.
What was measured:
Experiment in all cases: co-IP; Flag-HP1 forms co-expressed with KDM2A forms in 293T cells; lysate in 0.1% Triton X-100, 300 mM NaCl, 300 mM sucrose, 1 mM MgCl2, 1 mM EGTA, 10 mM PIPES pH 7.0; precipitated with anti-Flag agarose; Western blot with anti-KDM2A (ab99242), anti-GFP and anti-Flag
[1] = target: Flag-HP1γ (CSD) (human) (UniProt Q13185)
[2] = target: Flag-HP1γ (human) (UniProt Q13185)
[3] = target: Flag-HP1γ (ΔCSD) (human) (UniProt Q13185)
[4] = target: Flag-HP1α (human) (UniProt P45973)
[5] = target: Flag-HP1β (human) (UniProt P83916)
[6] = target: Flag-HP1γ (V32M) (human) (UniProt Q13185)

Protein sequences, listed by entry. Tags and fused reporters are not part of them. Lines headed by an entry give the natural chain unless they say otherwise; changes in a name come on top. Residues count along the entry.
UniProt Q13185: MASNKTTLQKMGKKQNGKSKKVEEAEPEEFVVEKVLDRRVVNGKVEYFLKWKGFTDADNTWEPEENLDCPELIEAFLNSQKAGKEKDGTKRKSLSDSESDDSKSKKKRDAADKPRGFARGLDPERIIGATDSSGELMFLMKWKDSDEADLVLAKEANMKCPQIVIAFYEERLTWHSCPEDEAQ
Flag-HP1γ (ΔCSD): residues 1-115 of Q13185
Flag-HP1γ (CSD): residues 110-183 of Q13185
UniProt P45973: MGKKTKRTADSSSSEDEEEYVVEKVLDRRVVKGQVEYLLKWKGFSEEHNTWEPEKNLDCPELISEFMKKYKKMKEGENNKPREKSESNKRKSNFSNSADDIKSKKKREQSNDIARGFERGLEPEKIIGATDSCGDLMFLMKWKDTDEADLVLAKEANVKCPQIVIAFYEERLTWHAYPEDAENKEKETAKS
UniProt P83916: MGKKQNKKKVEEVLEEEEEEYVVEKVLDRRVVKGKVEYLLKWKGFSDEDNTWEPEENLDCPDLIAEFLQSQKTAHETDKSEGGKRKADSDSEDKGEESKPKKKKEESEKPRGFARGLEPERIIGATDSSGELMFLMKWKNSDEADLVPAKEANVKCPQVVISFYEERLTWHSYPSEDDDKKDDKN

| Binder | binding [2] | binding [4] | binding [5] | other results |
| --- | --- | --- | --- | --- |
| ELSEVEKAKIRGSYLTVTLQRPTKELHGTSIVP (domain or fragment, UniProt Q9Y2K7 785-817) [GFP fusion protein with KDM2A (amino acids 785–817)] | binds |  |  | binding [1]: binds; binding [3]: no binding |
| ELSEVEKAKIRGSYLTETLQRPTKELHGTSIVP (domain or fragment, UniProt Q9Y2K7 785-817) [GFP fusion protein with the KDM2A fragment (amino acids 785–817, V801E)] | no binding |  |  |  |
| ELSEVEKAKIRGSYLTVTLQRPTKEL (domain or fragment, UniProt Q9Y2K7 785-810) [GFP fusion protein with KDM2A (amino acids 785–810)] | binds |  |  |  |
| GFP-KDM2A (667–1162) lacking NoLS-3 (amino acids 947–1162) (domain or fragment, UniProt Q9Y2K7 667-946) PNCWECPKCYQEDSSEKAQKRKMEESDEEAVQAKVLRPLRSCDEPLTPPPHSPTSMLQLIHDPVSPRGMVTRSSPGAGPSDHHSASRDERFKRRQLLRLQATERTMVREKENNPSGKKELSEVEKAKIRGSYLTVTLQRPTKELHGTSIVPKLQAITASSANLRHSPRVLVQHCPARTPQRGDEEGLGGEEEEEEEEEEEDDSAEEGGAARLNGRGSWAQDGDESWMQREVWMSVFRYLSRRELCECMRVCKTWYKWCCDKRLWTKIDLSRCKAIVPQAL | binds |  |  |  |

Now from value to binder, other results behind:

| binding [2] | binding [4] | binding [5] | Binder | other results |
| --- | --- | --- | --- | --- |
| binds | binds | binds | SF-KDM2A (amino acids 543–1162) (protein, UniProt Q9Y2K7 543-1162) MKPAPRLTPVRPAAASPIVSGARRRRVRCRKCKACVQGECGVCHYCRDMKKFGGPGRMKQSCVLRQCLAPRLPHSVTCSLCGEVDQNEETQDFEKKLMECCICNEIVHPGCLQMDGEGLLNEELPNCWECPKCYQEDSSEKAQKRKMEESDEEAVQAKVLRPLRSCDEPLTPPPHSPTSMLQLIHDPVSPRGMVTRSSPGAGPSDHHSASRDERFKRRQLLRLQATERTMVREKENNPSGKKELSEVEKAKIRGSYLTVTLQRPTKELHGTSIVPKLQAITASSANLRHSPRVLVQHCPARTPQRGDEEGLGGEEEEEEEEEEEDDSAEEGGAARLNGRGSWAQDGDESWMQREVWMSVFRYLSRRELCECMRVCKTWYKWCCDKRLWTKIDLSRCKAIVPQALSGIIKRQPVSLDLSWTNISKKQLTWLVNRLPGLKDLLLAGCSWSAVSALSTSSCPLLRTLDLRWAVGIKDPQIRDLLTPPADKPGQDNRSKLRNMTDFRLAGLDITDATLRLIIRHMPLLSRLDLSHCSHLTDQSSNLLTAVGSSTRYSLTELNMAGCNKLTDQTLIYLRRIANVTLIDLRGCKQITRKACEHFISDLSINSLYCLSDEKLIQKIS |  |
| binds | binds | binds | GFP-KDM2A (amino acids 667–1162) (domain or fragment, UniProt Q9Y2K7 667-1162) PNCWECPKCYQEDSSEKAQKRKMEESDEEAVQAKVLRPLRSCDEPLTPPPHSPTSMLQLIHDPVSPRGMVTRSSPGAGPSDHHSASRDERFKRRQLLRLQATERTMVREKENNPSGKKELSEVEKAKIRGSYLTVTLQRPTKELHGTSIVPKLQAITASSANLRHSPRVLVQHCPARTPQRGDEEGLGGEEEEEEEEEEEDDSAEEGGAARLNGRGSWAQDGDESWMQREVWMSVFRYLSRRELCECMRVCKTWYKWCCDKRLWTKIDLSRCKAIVPQALSGIIKRQPVSLDLSWTNISKKQLTWLVNRLPGLKDLLLAGCSWSAVSALSTSSCPLLRTLDLRWAVGIKDPQIRDLLTPPADKPGQDNRSKLRNMTDFRLAGLDITDATLRLIIRHMPLLSRLDLSHCSHLTDQSSNLLTAVGSSTRYSLTELNMAGCNKLTDQTLIYLRRIANVTLIDLRGCKQITRKACEHFISDLSINSLYCLSDEKLIQKIS |  |
| binds | binds | binds | KDM2A (protein, UniProt Q9Y2K7 1-1162) MEPEEERIRYSQRLRGTMRRRYEDDGISDDEIEGKRTFDLEEKLHTNKYNANFVTFMEGKDFNVEYIQRGGLRDPLIFKNSDGLGIKMPDPDFTVNDVKMCVGSRRMVDVMDVNTQKGIEMTMAQWTRYYETPEEEREKLYNVISLEFSHTRLENMVQRPSTVDFIDWVDNMWPRHLKESQTESTNAILEMQYPKVQKYCLMSVRGCYTDFHVDFGGTSVWYHIHQGGKVFWLIPPTAHNLELYENWLLSGKQGDIFLGDRVSDCQRIELKQGYTFVIPSGWIHAVYTPTDTLVFGGNFLHSFNIPMQLKIYNIEDRTRVPNKFRYPFYYEMCWYVLERYVYCITNRSHLTKEFQKESLSMDLELNGLESGNGDEEAVDREPRRLSSRRSVLTSPVANGVNLDYDGLGKTCRSLPSLKKTLAGDSSSDCSRGSHNGQVWDPQCAPRKDRQVHLTHFELEGLRCLVDKLESLPLHKKCVPTGIEDEDALIADVKILLEELANSDPKLALTGVPIVQWPKRDKLKFPTRPKVRVPTIPITKPHTMKPAPRLTPVRPAAASPIVSGARRRRVRCRKCKACVQGECGVCHYCRDMKKFGGPGRMKQSCVLRQCLAPRLPHSVTCSLCGEVDQNEETQDFEKKLMECCICNEIVHPGCLQMDGEGLLNEELPNCWECPKCYQEDSSEKAQKRKMEESDEEAVQAKVLRPLRSCDEPLTPPPHSPTSMLQLIHDPVSPRGMVTRSSPGAGPSDHHSASRDERFKRRQLLRLQATERTMVREKENNPSGKKELSEVEKAKIRGSYLTVTLQRPTKELHGTSIVPKLQAITASSANLRHSPRVLVQHCPARTPQRGDEEGLGGEEEEEEEEEEEDDSAEEGGAARLNGRGSWAQDGDESWMQREVWMSVFRYLSRRELCECMRVCKTWYKWCCDKRLWTKIDLSRCKAIVPQALSGIIKRQPVSLDLSWTNISKKQLTWLVNRLPGLKDLLLAGCSWSAVSALSTSSCPLLRTLDLRWAVGIKDPQIRDLLTPPADKPGQDNRSKLRNMTDFRLAGLDITDATLRLIIRHMPLLSRLDLSHCSHLTDQSSNLLTAVGSSTRYSLTELNMAGCNKLTDQTLIYLRRIANVTLIDLRGCKQITRKACEHFISDLSINSLYCLSDEKLIQKIS | binding [6]: binds |
| no binding |  |  | mutant KDM2A (V801E) (protein, UniProt Q9Y2K7 1-1162) MEPEEERIRYSQRLRGTMRRRYEDDGISDDEIEGKRTFDLEEKLHTNKYNANFVTFMEGKDFNVEYIQRGGLRDPLIFKNSDGLGIKMPDPDFTVNDVKMCVGSRRMVDVMDVNTQKGIEMTMAQWTRYYETPEEEREKLYNVISLEFSHTRLENMVQRPSTVDFIDWVDNMWPRHLKESQTESTNAILEMQYPKVQKYCLMSVRGCYTDFHVDFGGTSVWYHIHQGGKVFWLIPPTAHNLELYENWLLSGKQGDIFLGDRVSDCQRIELKQGYTFVIPSGWIHAVYTPTDTLVFGGNFLHSFNIPMQLKIYNIEDRTRVPNKFRYPFYYEMCWYVLERYVYCITNRSHLTKEFQKESLSMDLELNGLESGNGDEEAVDREPRRLSSRRSVLTSPVANGVNLDYDGLGKTCRSLPSLKKTLAGDSSSDCSRGSHNGQVWDPQCAPRKDRQVHLTHFELEGLRCLVDKLESLPLHKKCVPTGIEDEDALIADVKILLEELANSDPKLALTGVPIVQWPKRDKLKFPTRPKVRVPTIPITKPHTMKPAPRLTPVRPAAASPIVSGARRRRVRCRKCKACVQGECGVCHYCRDMKKFGGPGRMKQSCVLRQCLAPRLPHSVTCSLCGEVDQNEETQDFEKKLMECCICNEIVHPGCLQMDGEGLLNEELPNCWECPKCYQEDSSEKAQKRKMEESDEEAVQAKVLRPLRSCDEPLTPPPHSPTSMLQLIHDPVSPRGMVTRSSPGAGPSDHHSASRDERFKRRQLLRLQATERTMVREKENNPSGKKELSEVEKAKIRGSYLTETLQRPTKELHGTSIVPKLQAITASSANLRHSPRVLVQHCPARTPQRGDEEGLGGEEEEEEEEEEEDDSAEEGGAARLNGRGSWAQDGDESWMQREVWMSVFRYLSRRELCECMRVCKTWYKWCCDKRLWTKIDLSRCKAIVPQALSGIIKRQPVSLDLSWTNISKKQLTWLVNRLPGLKDLLLAGCSWSAVSALSTSSCPLLRTLDLRWAVGIKDPQIRDLLTPPADKPGQDNRSKLRNMTDFRLAGLDITDATLRLIIRHMPLLSRLDLSHCSHLTDQSSNLLTAVGSSTRYSLTELNMAGCNKLTDQTLIYLRRIANVTLIDLRGCKQITRKACEHFISDLSINSLYCLSDEKLIQKIS |  |
| binds |  |  | GFP-KDM2A (667–1162) lacking amino acids 818–943 (domain or fragment, UniProt Q9Y2K7) PNCWECPKCYQEDSSEKAQKRKMEESDEEAVQAKVLRPLRSCDEPLTPPPHSPTSMLQLIHDPVSPRGMVTRSSPGAGPSDHHSASRDERFKRRQLLRLQATERTMVREKENNPSGKKELSEVEKAKIRGSYLTVTLQRPTKELHGTSIVPQALSGIIKRQPVSLDLSWTNISKKQLTWLVNRLPGLKDLLLAGCSWSAVSALSTSSCPLLRTLDLRWAVGIKDPQIRDLLTPPADKPGQDNRSKLRNMTDFRLAGLDITDATLRLIIRHMPLLSRLDLSHCSHLTDQSSNLLTAVGSSTRYSLTELNMAGCNKLTDQTLIYLRRIANVTLIDLRGCKQITRKACEHFISDLSINSLYCLSDEKLIQKIS |  |

— paper PMC6677663, “KDM2A-dependent reduction of rRNA transcription on glucose starvation requires HP1 in cells, including triple-negative breast cancer cells” (Oncotarget, 2019)
